Reference: PMC5469495, “MicroRNA319-regulated TCPs interact with FBHs and PFT1 to activate CO transcription and control flowering time in Arabidopsis” (PLoS Genetics, 2017)
No constants are given. Whether binding was seen depends on the method and setting. For some assays here: In cells and extracts the contact can be indirect. Some binding calls cover weakened binding; strength is not graded here.

T1: CDF1 (Arabidopsis thaliana) (UniProt Q8W1E3)
T1 sequence: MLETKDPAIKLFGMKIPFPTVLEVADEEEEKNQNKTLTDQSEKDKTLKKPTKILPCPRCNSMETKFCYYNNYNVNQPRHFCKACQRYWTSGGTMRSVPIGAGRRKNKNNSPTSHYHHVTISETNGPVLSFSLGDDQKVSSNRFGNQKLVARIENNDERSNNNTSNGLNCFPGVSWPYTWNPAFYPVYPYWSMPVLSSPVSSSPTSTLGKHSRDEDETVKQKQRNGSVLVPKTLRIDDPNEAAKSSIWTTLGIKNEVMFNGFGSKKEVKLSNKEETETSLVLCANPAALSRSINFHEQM

T2: CDF2 (Arabidopsis thaliana) (UniProt Q93ZL5)
T2 sequence: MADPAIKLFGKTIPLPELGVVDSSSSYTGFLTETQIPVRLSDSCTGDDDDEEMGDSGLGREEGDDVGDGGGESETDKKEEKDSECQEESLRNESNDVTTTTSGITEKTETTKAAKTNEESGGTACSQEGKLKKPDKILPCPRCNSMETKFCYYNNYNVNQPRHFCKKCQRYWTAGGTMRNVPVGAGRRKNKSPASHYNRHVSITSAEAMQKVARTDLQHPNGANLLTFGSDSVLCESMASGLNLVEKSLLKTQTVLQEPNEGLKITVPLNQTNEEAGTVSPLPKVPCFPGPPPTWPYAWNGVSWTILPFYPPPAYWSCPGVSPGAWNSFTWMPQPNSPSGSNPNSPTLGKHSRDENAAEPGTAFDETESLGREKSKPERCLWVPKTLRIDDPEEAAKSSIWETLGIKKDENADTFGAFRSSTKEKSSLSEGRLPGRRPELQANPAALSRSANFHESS

T3: CDF3 (Arabidopsis thaliana) (UniProt Q8LFV3)
T3 sequence: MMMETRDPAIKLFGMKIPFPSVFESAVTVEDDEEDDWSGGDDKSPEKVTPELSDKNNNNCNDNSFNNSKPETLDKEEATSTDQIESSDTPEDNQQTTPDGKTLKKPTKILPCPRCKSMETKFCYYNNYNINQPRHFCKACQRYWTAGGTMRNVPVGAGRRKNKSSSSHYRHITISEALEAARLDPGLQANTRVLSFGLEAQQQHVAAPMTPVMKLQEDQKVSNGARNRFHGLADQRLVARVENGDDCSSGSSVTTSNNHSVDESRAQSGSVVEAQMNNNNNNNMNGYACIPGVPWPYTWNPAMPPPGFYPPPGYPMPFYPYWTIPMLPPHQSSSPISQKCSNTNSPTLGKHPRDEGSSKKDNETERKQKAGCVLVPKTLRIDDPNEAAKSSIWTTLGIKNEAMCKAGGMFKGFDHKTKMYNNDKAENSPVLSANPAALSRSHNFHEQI

T4: PHYTOCHROME AND FLOWERING TIME 1 (Arabidopsis thaliana) (UniProt Q7XYY2)
T4 sequence: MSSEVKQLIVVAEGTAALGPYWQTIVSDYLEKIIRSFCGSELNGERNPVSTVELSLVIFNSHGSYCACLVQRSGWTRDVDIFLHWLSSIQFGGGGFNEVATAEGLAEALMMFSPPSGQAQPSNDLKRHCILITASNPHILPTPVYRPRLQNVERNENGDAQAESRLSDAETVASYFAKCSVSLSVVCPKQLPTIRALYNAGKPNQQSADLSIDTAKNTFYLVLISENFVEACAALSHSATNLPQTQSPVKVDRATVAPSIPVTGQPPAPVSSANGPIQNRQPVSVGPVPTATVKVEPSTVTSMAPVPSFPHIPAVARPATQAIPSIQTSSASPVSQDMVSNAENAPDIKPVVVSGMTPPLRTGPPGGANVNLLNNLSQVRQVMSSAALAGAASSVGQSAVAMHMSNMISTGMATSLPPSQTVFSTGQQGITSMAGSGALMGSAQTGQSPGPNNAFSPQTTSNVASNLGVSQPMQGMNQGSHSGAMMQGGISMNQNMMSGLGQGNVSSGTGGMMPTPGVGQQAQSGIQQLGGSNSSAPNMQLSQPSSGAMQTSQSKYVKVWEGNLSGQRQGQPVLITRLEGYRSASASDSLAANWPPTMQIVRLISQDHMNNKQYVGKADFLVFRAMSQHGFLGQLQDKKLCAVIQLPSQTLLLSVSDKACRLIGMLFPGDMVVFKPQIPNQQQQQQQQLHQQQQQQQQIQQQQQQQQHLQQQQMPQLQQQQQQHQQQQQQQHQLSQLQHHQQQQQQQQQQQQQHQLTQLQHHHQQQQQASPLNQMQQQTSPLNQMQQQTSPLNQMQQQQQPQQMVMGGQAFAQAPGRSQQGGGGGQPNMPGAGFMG


Key:
[1] = target: T1, CDF1 (Arabidopsis thaliana); assay: two-hybrid; GAL4-AD and GAL4-BD derivatives co-transformed into yeast strain AH109; grown on SD-L/W, screened on SD-L/W/H or SD-L/W/H/A with 3-AT
[2] = target: T2, CDF2 (Arabidopsis thaliana); assay: as above
[3] = target: T3, CDF3 (Arabidopsis thaliana); assay: as above
[4] = target: T4, PHYTOCHROME AND FLOWERING TIME 1 (Arabidopsis thaliana); assay: as above
[5] = target: T4, PHYTOCHROME AND FLOWERING TIME 1 (Arabidopsis thaliana); assay: split reporter; LUC complementation imaging (LCI): nLUC and cLUC fusions co-infiltrated by Agrobacterium into N. benthamiana leaves; LUC activity 48 h after infiltration
[6] = target: T1, CDF1 (Arabidopsis thaliana); assay: as above
[7] = target: T2, CDF2 (Arabidopsis thaliana); assay: as above
[8] = target: T3, CDF3 (Arabidopsis thaliana); assay: as above
[9] = target: T4, PHYTOCHROME AND FLOWERING TIME 1 (Arabidopsis thaliana); assay: co-IP; GFP- and Myc-fused proteins transiently co-expressed in N. benthamiana leaves, collected 48 h after infiltration; anti-GFP- or anti-Myc-conjugated agarose beads; lysis buffer 50 mM Tris-HCl pH 7.5, 150 mM NaCl, 5 mM EDTA, 0.1% Triton X-100, 0.2% NP-40

| binding [1] | binding [2] | binding [3] | binding [4] | binding [5] | binding [6] | binding [7] | binding [8] | binding [9] | Binder |
| --- | --- | --- | --- | --- | --- | --- | --- | --- | --- |
| no binding | no binding | no binding | binds | binds | – | – | – | – | TCP3 (protein, UniProt Q9MAH8 1-391) MAPDNDHFLDSPSPPLLEMRHHQSATENGGGCGEIVEVQGGHIVRSTGRKDRHSKVCTAKGPRDRRVRLSAPTAIQFYDVQDRLGFDRPSKAVDWLITKAKSAIDDLAQLPPWNPADTLRQHAAAAANAKPRKTKTLISPPPPQPEETEHHRIGEEEDNESSFLPASMDSDSIADTIKSFFPVASTQQSYHHQPPSRGNTQNQDLLRLSLQSFQNGPPFPNQTEPALFSGQSNNQLAFDSSTASWEQSHQSPEFGKIQRLVSWNNVGAAESAGSTGGFVFASPSSLHPVYSQSQLLSQRGPLQSINTPMIRAWFDPHHHHHHHQQSMTTDDLHHHHPYHIPPGIHQSAIPGIAFASSGEFSGFRIPARFQGEQEEHGGDNKPSSASSDSRH |
| no binding | no binding | no binding | binds | binds | – | – | – | – | TCP24 (protein, UniProt Q9C758 1-324) MEVDEDIELQKHQEQQSRKLQRFSEDNTGLMRNWNNPSSRIIRVSRASGGKDRHSKVLTSKGLRDRRIRLSVATAIQFYDLQDRLGFDQPSKAVEWLINAASDSITDLPLLNTNFDHLDQNQNQTKSACSSGTSESSLLSLSRTEIRGKARERARERTAKDRDKDLQNAHSSFTQLLTGGFDQQPSNRNWTGGSDCFNPVQLQIPNSSSQEPMNHPFSFVPDYNFGISSSSSAINGGYSSRGTLQSNSQSLFLNNNNNITQRSSISSSSSSSSPMDSQSISFFMATPPPLDHHNHQLPETFDGRLYLYYGEGNRSSDDKAKERR |
| no binding | no binding | no binding | binds | binds | – | – | – | – | TCP2 (protein, UniProt Q93V43 1-365) MIGDLMKNNNNGDVVDNEVNNRLSRWHHNSSRIIRVSRASGGKDRHSKVLTSKGPRDRRVRLSVSTALQFYDLQDRLGYDQPSKAVEWLIKAAEDSISELPSLNNTHFPTDDENHQNQTLTTVAANSLSKSACSSNSDTSKNSSGLSLSRSELRDKARERARERTAKETKERDHNHTSFTDLLNSGSDPVNSNRQWMASAPSSSPMEYFSSGLILGSGQQTHFPISTNSHPFSSISDHHHHHPHHQHQEFSFVPDHLISPAESNGGAFNLDFNMSTPSGAGAAVSAASGGGFSGFNRGTLQSNSTNQHQSFLANLQRFPTSESGGGPQFLFGALPAENHHHNHQFQLYYENGCRNSSEHKGKGKN |
| no binding | no binding | no binding | binds | binds | no binding | no binding | no binding | binds | TCP4-CFP (natural protein, Arabidopsis thaliana, UniProt Q8LPR5 1-420, looked up, TCP4, Arabidopsis thaliana, At3g15030; FRET donor; source: Arabidopsis protoplast cells, co-expressed) MSDDQFHHPPPPSSMRHRSTSDAADGGCGEIVEVQGGHIVRSTGRKDRHSKVCTAKGPRDRRVRLSAHTAIQFYDVQDRLGFDRPSKAVDWLIKKAKTSIDELAELPPWNPADAIRLAAANAKPRRTTAKTQISPSPPPPQQQQQQQQLQFGVGFNGGGAEHPSNNESSFLPPSMDSDSIADTIKSFFPVIGSSTEAPSNHNLMHNYHHQHPPDLLSRTNSQNQDLRLSLQSFPDGPPSLLHHQHHHHTSASASEPTLFYGQSNPLGFDTSSWEQQSSEFGRIQRLVAWNSGGGGGATDTGNGGGFLFAPPTPSTTSFQPVLGQSQQLYSQRGPLQSSYSPMIRAWFDPHHHHQSISTDDLNHHHHLPPPVHQSAIPGIGFASGEFSSGFRIPARFQGQEEEQHDGLTHKPSSASSISRH |
| no binding | no binding | no binding | binds | binds | – | – | – | – | TCP10 (protein, UniProt O82277 1-361) MGLKGYSVGEGGGEIVEVQGGHIIRATGRKDRHSKVFTSKGPRDRRVRLSAHTAIQFYDVQDRLGYDRPSKAVDWLIKKAKTAIDKLELGETTTTTTRQEPVNTKPESPTLVFQRENNDQTQFVAANLDPEDAMKTFFPATTTTNGGGGTNINFQNYPHQDDNNMVSRTTTPPPNLSQDLGLSLHPFQGNNNTVVVPETNNFTTTHFDTFGRISGWNHHDLTMTSSSSSEHQQQEQEERSNGGFMVNHHPHHHHHQPSMMTLLNSQQQQVFLGGQQQQQQRGTLQSSLFPHSFRSWDHHQTTSDHHHHQNQASSMFASSSQYGSHGMMMMQGLSFPNTTRLLHGEEATQPNSSSSPPNSHL |
